{"source": "paper PMC5700166", "experiment_in_all_cases": "protein-binding microarray (PBM)", "settings_in_all_cases": "PBM: ~300 nM protein, 6 mM HEPES pH 7.8, 80 mM KCl, 0.5 mM EDTA, 0.5 mM EGTA, 6% glycerol, 35 ng/ul poly-dIdC, 1% milk, 1 h, room temperature; Ap Aiptasia and Nv Nematostella (sea anemones) / Co Capsaspora / Aq Amphimedon (sponge) / Dm Drosophila / Hu human; RHD is the Rel homology domain; high values mean tight binding; most listed sequences are background and not binding sites; double strand, one strand shown", "key": {"GST-Co-NF-kB": {"molecular_target": "T1, GST-Co-NF-kB (UniProt F1ARL5)", "T1 sequence": "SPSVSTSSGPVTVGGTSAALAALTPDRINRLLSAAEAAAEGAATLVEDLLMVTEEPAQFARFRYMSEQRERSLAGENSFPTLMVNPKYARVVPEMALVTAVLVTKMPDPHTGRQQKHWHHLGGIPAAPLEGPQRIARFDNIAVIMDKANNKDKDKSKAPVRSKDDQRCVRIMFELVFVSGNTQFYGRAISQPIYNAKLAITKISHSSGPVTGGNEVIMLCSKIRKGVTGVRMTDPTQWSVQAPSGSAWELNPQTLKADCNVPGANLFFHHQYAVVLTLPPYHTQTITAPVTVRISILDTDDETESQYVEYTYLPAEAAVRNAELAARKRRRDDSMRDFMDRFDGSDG"}, "GST-Dm-Relish": {"molecular_target": "T2, GST-Dm-Relish (UniProt Q94527)", "T2 sequence": "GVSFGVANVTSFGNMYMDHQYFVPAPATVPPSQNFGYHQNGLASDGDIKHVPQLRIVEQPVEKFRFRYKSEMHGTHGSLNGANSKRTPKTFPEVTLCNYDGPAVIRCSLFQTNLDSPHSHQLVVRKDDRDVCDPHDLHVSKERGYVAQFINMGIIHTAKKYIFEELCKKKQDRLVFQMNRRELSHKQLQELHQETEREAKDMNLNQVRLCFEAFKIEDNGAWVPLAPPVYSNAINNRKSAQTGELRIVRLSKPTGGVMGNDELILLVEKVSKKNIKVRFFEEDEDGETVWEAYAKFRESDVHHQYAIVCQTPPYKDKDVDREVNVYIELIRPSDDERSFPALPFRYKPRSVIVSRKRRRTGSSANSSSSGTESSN"}, "GST-Aq-NF-kB": {"molecular_target": "T3, GST-Aq-NF-kB (UniProt A9Y5G7)", "T3 sequence": "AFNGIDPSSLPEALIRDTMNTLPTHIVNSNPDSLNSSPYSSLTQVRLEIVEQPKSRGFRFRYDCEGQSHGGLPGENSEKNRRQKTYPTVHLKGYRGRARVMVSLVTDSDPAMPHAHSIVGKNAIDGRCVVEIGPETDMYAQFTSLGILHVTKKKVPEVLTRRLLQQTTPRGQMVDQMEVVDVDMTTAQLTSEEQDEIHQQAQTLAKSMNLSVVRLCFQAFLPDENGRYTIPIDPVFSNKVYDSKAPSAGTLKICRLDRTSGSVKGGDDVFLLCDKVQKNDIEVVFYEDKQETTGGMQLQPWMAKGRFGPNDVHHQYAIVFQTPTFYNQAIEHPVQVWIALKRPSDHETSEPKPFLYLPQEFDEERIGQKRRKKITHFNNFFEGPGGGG"}, "GST-Ap-NF-kB RHD": {"molecular_target": "T4, GST-Ap-NF-kB RHD (UniProt A0A913YAJ5)", "T4 sequence": "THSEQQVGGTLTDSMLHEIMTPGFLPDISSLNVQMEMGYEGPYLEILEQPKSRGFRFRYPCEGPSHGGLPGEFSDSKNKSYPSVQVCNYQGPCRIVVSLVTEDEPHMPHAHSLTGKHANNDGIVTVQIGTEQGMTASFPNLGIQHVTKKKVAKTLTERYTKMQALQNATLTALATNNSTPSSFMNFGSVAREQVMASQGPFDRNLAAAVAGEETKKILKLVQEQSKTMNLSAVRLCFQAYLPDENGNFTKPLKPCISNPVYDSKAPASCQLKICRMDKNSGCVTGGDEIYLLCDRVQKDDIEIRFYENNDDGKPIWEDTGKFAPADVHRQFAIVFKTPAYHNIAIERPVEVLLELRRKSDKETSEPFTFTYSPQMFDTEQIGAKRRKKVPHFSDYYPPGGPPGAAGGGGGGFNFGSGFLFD"}}, "note": "The list shows a part of the results, in another mix than the full data. For some of these results: The list includes weakly bound sequences.", "data": [{"sequence": "CCGATTAACATCACATTTTTCCCTGATGTTAATCGGGTCTTGATTCGCTTGACGCTGCTG", "values": [{"measurement": "binding signal", "setting": "GST-Co-NF-kB", "result": 5.64, "unit": "z-score"}, {"measurement": "binding signal", "setting": "GST-Dm-Relish", "result": 2.56, "unit": "z-score"}, {"measurement": "binding signal", "setting": "GST-Aq-NF-kB", "result": 4.26, "unit": "z-score"}]}, {"sequence": "CCGATTAACATCAGGAGTCCCCATGATGTTAATCGGGTCTTGATTCGCTTGACGCTGCTG", "values": [{"measurement": "binding signal", "setting": "GST-Dm-Relish", "result": 7.3, "unit": "z-score"}, {"measurement": "binding signal", "setting": "GST-Aq-NF-kB", "result": 4.27, "unit": "z-score"}]}, {"sequence": "CCGATTAACATCAGGCAATCCCCTGATGTTAATCGGGTCTTGATTCGCTTGACGCTGCTG", "values": [{"measurement": "binding signal", "setting": "GST-Co-NF-kB", "result": 1.6, "unit": "z-score"}, {"measurement": "binding signal", "setting": "GST-Dm-Relish", "result": 6.78, "unit": "z-score"}, {"measurement": "binding signal", "setting": "GST-Aq-NF-kB", "result": 7.01, "unit": "z-score"}]}, {"sequence": "CCGATTAACATCAACATTTCCCCTGATGTTAATCGGGTCTTGATTCGCTTGACGCTGCTG", "values": [{"measurement": "binding signal", "setting": "GST-Dm-Relish", "result": 3.46, "unit": "z-score"}, {"measurement": "binding signal", "setting": "GST-Aq-NF-kB", "result": 5.86, "unit": "z-score"}]}, {"sequence": "CCGATTAACATCAGGACCGTCCCTGATGTTAATCGGGTCTTGATTCGCTTGACGCTGCTG", "values": [{"measurement": "binding signal", "setting": "GST-Co-NF-kB", "result": -0.0707, "unit": "z-score"}, {"measurement": "binding signal", "setting": "GST-Dm-Relish", "result": 0.526, "unit": "z-score"}, {"measurement": "binding signal", "setting": "GST-Aq-NF-kB", "result": 6.42, "unit": "z-score"}]}, {"sequence": "CCGATTAACATCAAGGGGGGTGCTGATGTTAATCGGGTCTTGATTCGCTTGACGCTGCTG", "values": [{"measurement": "binding signal", "setting": "GST-Co-NF-kB", "result": 3.26, "unit": "z-score"}, {"measurement": "binding signal", "setting": "GST-Dm-Relish", "result": 4.11, "unit": "z-score"}, {"measurement": "binding signal", "setting": "GST-Aq-NF-kB", "result": 4.32, "unit": "z-score"}]}, {"sequence": "CCGATTAACATCAGGGTTTCACCTGATGTTAATCGGGTCTTGATTCGCTTGACGCTGCTG", "values": [{"measurement": "binding signal", "setting": "GST-Co-NF-kB", "result": -0.722, "unit": "z-score"}, {"measurement": "binding signal", "setting": "GST-Dm-Relish", "result": 5.71, "unit": "z-score"}, {"measurement": "binding signal", "setting": "GST-Aq-NF-kB", "result": 3.71, "unit": "z-score"}]}, {"sequence": "CCGATTAACATCAAGGGGATCCCTGATGTTAATCGGGTCTTGATTCGCTTGACGCTGCTG", "values": [{"measurement": "binding signal", "setting": "GST-Co-NF-kB", "result": 3.82, "unit": "z-score"}, {"measurement": "binding signal", "setting": "GST-Dm-Relish", "result": 10.3, "unit": "z-score"}, {"measurement": "binding signal", "setting": "GST-Aq-NF-kB", "result": 6.69, "unit": "z-score"}]}, {"sequence": "CCGATTAACATCAGGGTTTCCCATGATGTTAATCGGGTCTTGATTCGCTTGACGCTGCTG", "values": [{"measurement": "binding signal", "setting": "GST-Dm-Relish", "result": 8.13, "unit": "z-score"}, {"measurement": "binding signal", "setting": "GST-Aq-NF-kB", "result": 4.6, "unit": "z-score"}]}, {"sequence": "CCGATTAACATCAGGGGATACACTGATGTTAATCGGGTCTTGATTCGCTTGACGCTGCTG", "values": [{"measurement": "binding signal", "setting": "GST-Dm-Relish", "result": 5.84, "unit": "z-score"}, {"measurement": "binding signal", "setting": "GST-Aq-NF-kB", "result": 4.05, "unit": "z-score"}]}, {"sequence": "CCGATTAACATCAAAAATTCACCTGATGTTAATCGGGTCTTGATTCGCTTGACGCTGCTG", "values": [{"measurement": "binding signal", "setting": "GST-Dm-Relish", "result": 5.78, "unit": "z-score"}, {"measurement": "binding signal", "setting": "GST-Aq-NF-kB", "result": 2.74, "unit": "z-score"}]}, {"sequence": "CCGATTAACATCAGGGGAGAACCTGATGTTAATCGGGTCTTGATTCGCTTGACGCTGCTG", "values": [{"measurement": "binding signal", "setting": "GST-Ap-NF-kB RHD", "result": 6.35, "unit": "z-score"}]}, {"sequence": "CCGATTAACATCAAGTAATCCCCTGATGTTAATCGGGTCTTGATTCGCTTGACGCTGCTG", "values": [{"measurement": "binding signal", "setting": "GST-Dm-Relish", "result": 7.56, "unit": "z-score"}, {"measurement": "binding signal", "setting": "GST-Aq-NF-kB", "result": 6.04, "unit": "z-score"}]}, {"sequence": "CCGATTAACATCACGAAATCCCCTGATGTTAATCGGGTCTTGATTCGCTTGACGCTGCTG", "values": [{"measurement": "binding signal", "setting": "GST-Ap-NF-kB RHD", "result": 8.93, "unit": "z-score"}]}, {"sequence": "CCGATTAACATCAAACGTTCCCCTGATGTTAATCGGGTCTTGATTCGCTTGACGCTGCTG", "values": [{"measurement": "binding signal", "setting": "GST-Dm-Relish", "result": 3.29, "unit": "z-score"}, {"measurement": "binding signal", "setting": "GST-Aq-NF-kB", "result": 4.66, "unit": "z-score"}]}, {"sequence": "CCGATTAACATCACGGGGTTGCCTGATGTTAATCGGGTCTTGATTCGCTTGACGCTGCTG", "values": [{"measurement": "binding signal", "setting": "GST-Dm-Relish", "result": 2.5, "unit": "z-score"}, {"measurement": "binding signal", "setting": "GST-Aq-NF-kB", "result": 2.2, "unit": "z-score"}]}, {"sequence": "CCGATTAACATCAGCGGGAATCCTGATGTTAATCGGGTCTTGATTCGCTTGACGCTGCTG", "values": [{"measurement": "binding signal", "setting": "GST-Ap-NF-kB RHD", "result": 2.44, "unit": "z-score"}]}]}
